For assay [1], the target named is NF-κB essential modulator (NEMO) (mouse (endogenous in Raw 264.7)) (UniProt O88522). As to the kind of experiment: co-IP; NEMO immunoprecipitated (agarose-conjugated NEMO FL-419 antibody, 4 h, or antibody plus Dynabeads) at 4 °C from NP-40 lysates of Raw 264.7 cells; cells pretreated 30 min with DMSO, NBD mimetics (100 μM) or SR12343 (0, 25, 50, 100, 150 μM); blots for IKKβ, IKKα, TRAF2, IκBα.

Chains of the proteins cited; added tags and fusions are not shown.
UniProt Q9Z1E3: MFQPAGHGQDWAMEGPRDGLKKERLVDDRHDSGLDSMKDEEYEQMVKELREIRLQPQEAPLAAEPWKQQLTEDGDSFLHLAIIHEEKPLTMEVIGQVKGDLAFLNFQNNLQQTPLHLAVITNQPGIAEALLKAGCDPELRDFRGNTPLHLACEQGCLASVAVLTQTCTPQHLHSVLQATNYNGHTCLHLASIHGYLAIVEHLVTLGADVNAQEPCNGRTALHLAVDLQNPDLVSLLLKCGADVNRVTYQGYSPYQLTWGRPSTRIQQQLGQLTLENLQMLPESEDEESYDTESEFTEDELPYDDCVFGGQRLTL

Assay [2] addresses T1, NF-κB essential modulator (NEMO) (mouse (endogenous in Raw 264.7)), O88522.
T1 chain: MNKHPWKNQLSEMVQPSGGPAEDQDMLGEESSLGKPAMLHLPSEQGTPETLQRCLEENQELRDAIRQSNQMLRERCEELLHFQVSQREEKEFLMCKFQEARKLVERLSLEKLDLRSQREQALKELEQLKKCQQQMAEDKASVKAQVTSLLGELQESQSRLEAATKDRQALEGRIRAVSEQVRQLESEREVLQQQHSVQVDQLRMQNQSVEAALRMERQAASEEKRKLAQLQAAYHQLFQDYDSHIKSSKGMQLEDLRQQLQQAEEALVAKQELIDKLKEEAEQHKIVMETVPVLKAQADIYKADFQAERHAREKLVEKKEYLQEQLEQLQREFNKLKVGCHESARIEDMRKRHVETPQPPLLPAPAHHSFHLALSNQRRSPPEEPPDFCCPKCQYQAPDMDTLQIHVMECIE
The description is as above. As to conditions: remark: other sources report otherwise.

For assay [3], the target named is NF-κB essential modulator (NEMO) (mouse (endogenous in Raw 264.7)) (UniProt O88522). As to the kind of experiment: co-IP; Raw 264.7 cells pretreated 30 min with 8K-NBD peptide (400 μM), then NEMO immunoprecipitated from NP-40 lysate and blotted for IKKβ; only the binder purified.

No constants are given. Whether binding was seen depends on the method and setting. In cells and extracts the contact can be indirect. Some entries that bind do so weakly or less than the wild type.

In the case of IκBα (from UniProt Q9Z1E3 1-314), the binding result in assay [1] is “no binding”.

B1: TNF receptor-associated factor 2 (TRAF2), P39429 1-501 (protein)
chain: MAAASVTSPGSLELLQPGFSKTLLGTRLEAKYLCSACKNILRRPFQAQCGHRYCSFCLTSILSSGPQNCAACVYEGLYEEGISILESSSAFPDNAARREVESLPAVCPNDGCTWKGTLKEYESCHEGLCPFLLTECPACKGLVRLSEKEHHTEQECPKRSLSCQHCRAPCSHVDLEVHYEVCPKFPLTCDGCGKKKIPRETFQDHVRACSKCRVLCRFHTVGCSEMVETENLQDHELQRLREHLALLLSSFLEAQASPGTLNQVGPELLQRCQILEQKIATFENIVCVLNREVERVAVTAEACSRQHRLDQDKIEALSNKVQQLERSIGLKDLAMADLEQKVSELEVSTYDGVFIWKISDFTRKRQEAVAGRTPAIFSPAFYTSRYGYKMCLRVYLNGDGTGRGTHLSLFFVVMKGPNDALLQWPFNQKVTLMLLDHNNREHVIDAFRPDVTSSSFQRPVSDMNIASGCPLFCPVSKMEAKNSYVRDDAIFIKAIVDLTGL
As to B1, in assay [2], the binding entry is given as “no binding”.

B2: IκB kinase β (IKKβ) (protein, UniProt O88351 1-757)
chain: MSWSPSLPTQTCGAWEMKERLGTGGFGNVIRWHNQATGEQIAIKQCRQELSPKNRNRWCLEIQIMRRLNHPNVVAARDVPEGMQNLAPNDLPLLAMEYCQGGDLRRYLNQFENCCGLREGAVLTLLSDIASALRYLHENRIIHRDLKPENIVLQQGEKRLIHKIIDLGYAKELDQGSLCTSFVGTLQYLAPELLEQQKYTVTVDYWSFGTLAFECITGFRPFLPNWQPVQWHSKVRQKSEVDIVVSEDLNGAVKFSSSLPFPNNLNSVLAERLEKWLQLMLMWHPRQRGTDPQYGPNGCFRALDDILNLKLVHVLNMVTGTVHTYPVTEDESLQSLKTRIQENTGILETDQELLQKAGLVLLPDKPATQCISDSKTNEGLTLDMDLVFLLDNSKINYETQITPRPPPESVSCILQEPKRNLSFFQLRKVWGQVWHSIQTLKEDCNRLQQGQRAAMMSLLRNNSCLSKMKNAMASTAQQLKAKLDFFKTSIQIDLEKYKEQTEFGITSDKLLLAWREMEQAVEQCGRENDVKHLVERMMALQTDIVDLQRSPMGRKQGGTLDDLEEQARELYRKLREKPRDQRTEGDSQEMVRLLLQAIQSFEKKVRVIYTQLSKTVVCKQKALELLPKVEEVVSLMNEDERTVVRLQEKRQKELWNLLKIACSKVRGPVSGSPDSMNVSRLSHPGQLMSQPSSACDSLPESDKKSEELVAEAHALCSRLESALQDTVKEQDRSFTTLDWSWLQMEDEERCSLEQACD
For B2, the binding result in assay [1] is listed as “binds”.

B3: IκB kinase α (IKKα) (protein, UniProt Q60680 1-745)
chain: MERPPGLRPGAGGPWEMRERLGTGGFGNVSLYQHRELDLKIAIKSCRLELSSKNRERWCHEIQIMKKLDHANVVKACDVPEELNFLINDVPLLAMEYCSGGDLRKLLNKPENCCGLKESQILSLLSDIGSGIRYLHENKIIHRDLKPENIVLQDVGGKTIHKIIDLGYAKDVDQGSLCTSFVGTLQYLAPELFENKPYTATVDYWSFGTMVFECIAGYRPFLHHLQPFTWHEKIKKKDPKCIFACEEMTGEVRFSSHLPQPNSLCSLIVEPMESWLQLMLNWDPQQRGGPIDLTLKQPRCFALMDHILNLKIVHILNMTSAKIISFLLPCDESLHSLQSRIERETGINTGSQELLSETGISLDPRKPASQCVLDGVRGCDSYMVYLFDKSKTVYEGPFASRSLSDCVNYIVQDSKIQLPIIQLRKVWAEAVHYVSGLKEDYSRLFQGQRAAMLSLLRYNANLTKMKNTLISASQQLKAKLEFFRKSIQLDLERYSEQMTYGISSEKMLKAWKEMEEKAIHYSEVGVIGYLEDQIMSLHTEIMELQKSPYGRRQGDLMESLEQRAIDLYKQLKHRPPDHLYSDSTEMVKIIVHTVQSQDRVLKELFGHLSKLLGCKQKIIDLLPKVEVALSNIKEADNTVMFMQGKRQKEIWHLLKIACTQSSARSLVGSSLEGTVTPPVSAWLPPTLADREHPLTCVVTPQDGETLAQMIEENLNCLGHLSTIIREANEDQSSSLMSLDWSWLAE
As to B3, the binding entry in assay [1] is on record as “binds”.

For KKKKKKKKGGTALDWSWLQTE [8K-NBD peptide], in assay [3], the binding result is “binds”.

The record behind these values is article PMC6013238, “Development of novel NEMO-binding domain mimetics for inhibiting IKK/NF-κB activation” (PLoS Biology, 2018).
